{
  "source": "patent US20230203158A1",
  "about": "(FLAGSHIP PIONEERING INNOVATIONS VII, published 2023)",
  "binders": {"B1": {"name": "PRO023 (IL-10/DSG1 ANDbody: native IL-10 fused to the C-termini of the PRO003 heavy chains) (other)", "heavy": "EVQLVESGGGLVQPGRSLRLSCAASGFTFDDYAMHWVRQAPGKGLEWVSGISWNSGSIDYADSVKGRFTISRDNAKNSLYLQMNSLRVEDTALYYCAKDGSRVFGVGGGFDFWGQGTMVTVSSASTKGPSVFPLAPSSKSTSGGTAALGCLVKDYFPEPVTVSWNSGALTSGVHTFPAVLQSSGLYSLSSVVTVPSSSLGTQTYICNVNHKPSNTKVDKKV[human IgG1 Fc with changes not shown]GGGGSGGGGSGGGGSSPGQGTQSENSCTHFPGNLPNMLRDLRDAFSRVKTFFQMKDQLDNLLLKESLLEDFKGYLGCQALSEMIQFYLEEVMPQAENQDPDIKAHVNSLGENLKTLRLRLRRCHRFLPCENKSKAVEQVKNAFNKLQEKGIYKAMSEFDIFINYIEAYMTMKIRN", "light": "ELQMTQSPSSLSASVGDRVTITCQASQDIGNYLNWYQQKPGKAPKLLIYDASYLETGVPSRFSGSGSGTDFTFTISSLQPEDIATYYCQQYDNLPFTFGPGTKVDIKRTVAAPSVFIFPPSDEQLKSGTASVVCLLNNFYPREAKVQWKVDNALQSGNSQESVTEQDSKDSTYSLSSTLTLSKADYEKHKVYACEVTHQGLSSPVTKSFNRGEC"}, "B2": {"name": "PRO024 (IL-10/DSG1 ANDbody: monomeric IL-10 fused to the C-termini of the PRO003 heavy chains) (other)", "heavy": "EVQLVESGGGLVQPGRSLRLSCAASGFTFDDYAMHWVRQAPGKGLEWVSGISWNSGSIDYADSVKGRFTISRDNAKNSLYLQMNSLRVEDTALYYCAKDGSRVFGVGGGFDFWGQGTMVTVSSASTKGPSVFPLAPSSKSTSGGTAALGCLVKDYFPEPVTVSWNSGALTSGVHTFPAVLQSSGLYSLSSVVTVPSSSLGTQTYICNVNHKPSNTKVDKKV[human IgG1 Fc with changes not shown]GGGGSGGGGSGGGGSSPGQGTQSENSCTHFPGNLPNMLRDLRDAFSRVKTFFQMKDQLDNLLLKESLLEDFKGYLGCQALSEMIQFYLEEVMPQAENQDPDIKAHVNSLGENLKTLRLRLRRCHRFLPCENGGGSGGKSKAVEQVKNAFNKLQEKGIYKAMSEFDIFINYIEAYMTMKIRN", "light": "B1 light"}, "B3": {"name": "PRO025 (IL-10/DSG1 ANDbody: IL-10 dimer fused to each C-terminus of the PRO003 heavy chains) (other)", "heavy": "EVQLVESGGGLVQPGRSLRLSCAASGFTFDDYAMHWVRQAPGKGLEWVSGISWNSGSIDYADSVKGRFTISRDNAKNSLYLQMNSLRVEDTALYYCAKDGSRVFGVGGGFDFWGQGTMVTVSSASTKGPSVFPLAPSSKSTSGGTAALGCLVKDYFPEPVTVSWNSGALTSGVHTFPAVLQSSGLYSLSSVVTVPSSSLGTQTYICNVNHKPSNTKVDKKV[human IgG1 Fc with changes not shown]GGGGSGGGGSGGGGSSPGQGTQSENSCTHFPGNLPNMLRDLRDAFSRVKTFFQMKDQLDNLLLKESLLEDFKGYLGCQALSEMIQFYLEEVMPQAENQDPDIKAHVNSLGENLKTLRLRLRRCHRFLPCENKSKAVEQVKNAFNKLQEKGIYKAMSEFDIFINYIEAYMTMKIRNGGGSGGGSPGQGTQSENSCTHFPGNLPNMLRDLRDAFSRVKTFFQMKDQLDNLLLKESLLEDFKGYLGCQALSEMIQFYLEEVMPQAENQDPDIKAHVNSLGENLKTLRLRLRRCHRFLPCENKSKAVEQVKNAFNKLQEKGIYKAMSEFDIFINYIEAYMTMKIRN", "light": "B1 light"}},
  "data": [
    {"target": "IL-10 receptor of HEK-BLUE IL-10 cells (the cells express all the components of the IL-10 signaling pathway)", "assay": "cell-based or functional assay", "units": {"EC50 (pM), HEK-BLUE IL-10 signaling assay (SEAP)": "pM"}, "values": [
      {"binder": "B1", "EC50 (pM), HEK-BLUE IL-10 signaling assay (SEAP)": 54},
      {"binder": "B2", "EC50 (pM), HEK-BLUE IL-10 signaling assay (SEAP)": 293},
      {"binder": "B3", "EC50 (pM), HEK-BLUE IL-10 signaling assay (SEAP)": 46}
    ]}
  ]
}
